Data taken from the supplement of paper PMC8728848.
Some of the results follow.

What was measured:
Assay in all cases: glycan array binding signal (z-score within array); higher = stronger binding
Conditions in all cases: glycan notation: IUPAC condensed, linker removed
[1] = target: GlcNAc(b1-3)Gal(b1-4)GlcNAc(b1-3)Gal(b1-4)GlcNAc(b1-3)Gal(b1-4)GlcNAc(b1-2)Man(a1-3)[GlcNAc(b1-3)Gal(b1-4)GlcNAc(b1-3)Gal(b1-4)GlcNAc(b1-3)Gal(b1-4)GlcNAc(b1-2)Man(a1-6)]Man(b1-4)GlcNAc(b1-4)GlcNAc
Method in brief: (§1)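 Negative Z-scores can be read as non-binding. The Z-score is calculated within each array and then averaged across arrays of one protein sequence at different concentrations or buffers and across linkers. Arrays, 3228 in all, were curated from the Consortium for Functional Glycomics database and kept only where the protein sequence was available.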

[2] = target: GlcNAc(b1-3)Gal(b1-4)GlcNAc(b1-3)Gal(b1-4)GlcNAc(b1-3)Gal(b1-4)GlcNAc(b1-2)Man(a1-3)[GlcNAc(b1-3)Gal(b1-4)GlcNAc(b1-3)Gal(b1-4)GlcNAc(b1-3)Gal(b1-4)GlcNAc(b1-2)Man(a1-6)]Man(b1-4)GlcNAc(b1-4)[Fuc(a1-6)]GlcNAc
Method in brief: as §1

[3] = target: GlcNAc(b1-3)Gal(b1-4)GlcNAc(b1-3)Gal(b1-4)GlcNAc(b1-3)Gal(b1-4)GlcNAc(b1-2)[GlcNAc(b1-3)Gal(b1-4)GlcNAc(b1-3)Gal(b1-4)GlcNAc(b1-3)Gal(b1-4)GlcNAc(b1-6)]Man(a1-6)[GlcNAc(b1-3)Gal(b1-4)GlcNAc(b1-3)Gal(b1-4)GlcNAc(b1-3)Gal(b1-4)GlcNAc(b1-2)Man(a1-3)]Man(b1-4)GlcNAc(b1-4)[Fuc(a1-6)]GlcNAc
Method in brief: as §1

[4] = target: GlcNAc(b1-3)Gal(b1-4)GlcNAc(b1-3)Gal(b1-4)GlcNAc(b1-3)Gal(b1-4)GlcNAc(b1-3)Gal(b1-4)GlcNAc(b1-2)Man(a1-3)[GlcNAc(b1-3)Gal(b1-4)GlcNAc(b1-3)Gal(b1-4)GlcNAc(b1-3)Gal(b1-4)GlcNAc(b1-3)Gal(b1-4)GlcNAc(b1-2)Man(a1-6)]Man(b1-4)GlcNAc(b1-4)GlcNAc
Method in brief: as §1

[5] = target: GlcNAc(b1-3)Gal(b1-4)GlcNAc(b1-3)Gal(b1-4)GlcNAc(b1-3)Gal(b1-4)GlcNAc(b1-3)Gal(b1-4)GlcNAc(b1-2)Man(a1-3)[GlcNAc(b1-3)Gal(b1-4)GlcNAc(b1-3)Gal(b1-4)GlcNAc(b1-3)Gal(b1-4)GlcNAc(b1-3)Gal(b1-4)GlcNAc(b1-2)Man(a1-6)]Man(b1-4)GlcNAc(b1-4)[Fuc(a1-6)]GlcNAc
Method in brief: as §1

[6] = target: GlcNAc(b1-3)Gal(b1-4)GlcNAc(b1-3)Gal(b1-4)GlcNAc(b1-3)Gal(b1-4)GlcNAc(b1-3)Gal(b1-4)GlcNAc(b1-2)[GlcNAc(b1-3)Gal(b1-4)GlcNAc(b1-3)Gal(b1-4)GlcNAc(b1-3)Gal(b1-4)GlcNAc(b1-3)Gal(b1-4)GlcNAc(b1-6)]Man(a1-6)[GlcNAc(b1-3)Gal(b1-4)GlcNAc(b1-3)Gal(b1-4)GlcNAc(b1-3)Gal(b1-4)GlcNAc(b1-3)Gal(b1-4)GlcNAc(b1-2)Man(a1-3)]Man(b1-4)GlcNAc(b1-4)[Fuc(a1-6)]GlcNAc
Method in brief: as §1

[7] = target: GlcNAc(b1-3)Gal(b1-4)GlcNAc(b1-3)Gal(b1-4)GlcNAc(b1-3)GalNAc
Method in brief: as §1

[8] = target: GlcNAc(b1-3)Gal(b1-4)GlcNAc(b1-3)GalNAc
Method in brief: as §1

[9] = target: GlcNAc(b1-3)Gal(b1-4)GlcNAc(b1-3)[GlcNAc(b1-3)Gal(b1-4)GlcNAc(b1-3)]GalNAc
Method in brief: as §1

[10] = target: GlcNAc(b1-3)Gal(b1-4)GlcNAc(b1-6)[Gal(b1-3)]GalNAc
Method in brief: as §1

[11] = target: GlcNAc(b1-3)Gal(b1-4)GlcNAc(b1-6)[GlcNAc(b1-3)Gal(b1-3)]GalNAc
Method in brief: as §1

[12] = target: GlcNAc(b1-3)Gal(b1-4)GlcNAc(b1-6)[GlcNAc(b1-3)]Gal(b1-4)GlcNAc
Method in brief: as §1

GlcNAc(b1-3)GalNAc = target: GlcNAc(b1-3)GalNAc
Method in brief: as §1

GlcNAc(b1-3)Man = target: GlcNAc(b1-3)Man
Method in brief: as §1

[13] = target: GlcNAc(b1-3)[GlcNAc(b1-4)][GlcNAc(b1-6)]GlcNAc
Method in brief: as §1

[14] = target: GlcNAc(b1-3)[GlcNAc(b1-6)]Gal(b1-4)GlcNAc
Method in brief: as §1

[15] = target: GlcNAc(b1-3)[GlcNAc(b1-6)]GalNAc
Method in brief: as §1

[16] = target: GlcNAc(b1-4)Gal(b1-4)GlcNAc
Method in brief: as §1

GlcNAc(b1-4)GlcNAc = target: GlcNAc(b1-4)GlcNAc
Method in brief: as §1

[17] = target: GlcNAc(b1-4)GlcNAc(b1-4)GlcNAc
Method in brief: as §1

[18] = target: GlcNAc(b1-4)GlcNAc(b1-4)GlcNAc(b1-4)GlcNAc(b1-4)GlcNAc
Method in brief: as §1

[19] = target: GlcNAc(b1-4)GlcNAc(b1-4)GlcNAc(b1-4)GlcNAc(b1-4)GlcNAc(b1-4)GlcNAc
Method in brief: as §1

[20] = target: GlcNAc(b1-4)[GlcNAc(b1-6)]GalNAc
Method in brief: as §1

[21] = target: GlcNAc(b1-6)Gal(b1-4)GlcNAc
Method in brief: as §1

GlcNAc(b1-6)GalNAc = target: GlcNAc(b1-6)GalNAc
Method in brief: as §1

GlcNAc3Prop(b1-4)GlcNAc = target: GlcNAc3Prop(b1-4)GlcNAc
Method in brief: as §1

[22] = target: GlcNAc6S(b1-3)Gal(b1-4)GlcNAc
Method in brief: as §1

Kdn(a2-3)Gal(b1-3)GalNAc = target: Kdn(a2-3)Gal(b1-3)GalNAc
Method in brief: as §1

Kdn(a2-3)Gal(b1-3)GlcNAc = target: Kdn(a2-3)Gal(b1-3)GlcNAc
Method in brief: as §1

Kdn(a2-3)Gal(b1-4)Glc = target: Kdn(a2-3)Gal(b1-4)Glc
Method in brief: as §1

Kdn(a2-3)Gal(b1-4)GlcNAc = target: Kdn(a2-3)Gal(b1-4)GlcNAc
Method in brief: as §1

[23] = target: Kdn(a2-3)Gal(b1-4)[Fuc(a1-3)]GlcNAc
Method in brief: as §1

Kdn(a2-6)Gal(b1-4)GlcNAc = target: Kdn(a2-6)Gal(b1-4)GlcNAc
Method in brief: as §1

[24] = target: Man(a1-2)Man(a1-2)Man(a1-3)Man
Method in brief: as §1

[25] = target: Man(a1-2)Man(a1-2)Man(a1-6)[Man(a1-3)]Man
Method in brief: as §1

Man(a1-2)Man(a1-3)Man = target: Man(a1-2)Man(a1-3)Man
Method in brief: as §1

[26] = target: Man(a1-2)Man(a1-3)[Man(a1-2)Man(a1-6)]Man
Method in brief: as §1

[27] = target: Man(a1-2)Man(a1-3)[Man(a1-2)Man(a1-6)]Man(a1-6)[Man(a1-2)Man(a1-2)Man(a1-3)]Man
Method in brief: as §1

B1: Gal 4 (Mus musculus), P56470 (protein)
chain: MAYVPAPGYQPTYNPTLPYYQPIPGGLNVGMSVYIQGVASEHMKRFFVNFVVGQDPGSDVAFHFNPRFDGWDKVVFNTLQGGKWGSEERKRSMPFKKGAAFELVFIVLAEHYKVVVNGNPFYEYGHRLPLQMVTHLQVDGDLQLQSINFIGGQPLRPQGPPMMPPYPGPGHCHQQLNSLPTMEGPPTFNPPVPYFGRLQGGLTARRTIIIKGYVPPTGKSFAINFKVGSSGDIALHINPRMGNGTVVRNSLLNGSWGSEEKKITHNPFGPGQFFDLSIRCGLDRFKVYANGQHLFDFAHRLSAFQRVDTLEIQGDVTLSYVQI
glycan array binding signal (z-score) [1]: -0.25
glycan array binding signal (z-score) [2]: -0.173
glycan array binding signal (z-score) [3]: -0.244
glycan array binding signal (z-score) [4]: -0.27
glycan array binding signal (z-score) [5]: -0.287
glycan array binding signal (z-score) [6]: -0.245
glycan array binding signal (z-score) [7]: -0.3
glycan array binding signal (z-score) [8]: -0.205
glycan array binding signal (z-score) [9]: -0.255
glycan array binding signal (z-score) [10]: -0.174
glycan array binding signal (z-score) [11]: -0.018
glycan array binding signal (z-score) [12]: -0.278
glycan array binding signal (z-score) (GlcNAc(b1-3)GalNAc): -0.231
glycan array binding signal (z-score) (GlcNAc(b1-3)Man): -0.218
glycan array binding signal (z-score) [13]: -0.236
glycan array binding signal (z-score) [14]: -0.239
glycan array binding signal (z-score) [15]: -0.232
glycan array binding signal (z-score) [16]: -0.235
glycan array binding signal (z-score) (GlcNAc(b1-4)GlcNAc): -0.227
glycan array binding signal (z-score) [17]: -0.23
glycan array binding signal (z-score) [18]: -0.225
glycan array binding signal (z-score) [19]: -0.225
glycan array binding signal (z-score) [20]: -0.219
glycan array binding signal (z-score) [21]: -0.233
glycan array binding signal (z-score) (GlcNAc(b1-6)GalNAc): -0.24
glycan array binding signal (z-score) (GlcNAc3Prop(b1-4)GlcNAc): -0.2
glycan array binding signal (z-score) [22]: -0.227
glycan array binding signal (z-score) (Kdn(a2-3)Gal(b1-3)GalNAc): -0.24
glycan array binding signal (z-score) (Kdn(a2-3)Gal(b1-3)GlcNAc): -0.224
glycan array binding signal (z-score) (Kdn(a2-3)Gal(b1-4)Glc): -0.229
glycan array binding signal (z-score) (Kdn(a2-3)Gal(b1-4)GlcNAc): -0.218
glycan array binding signal (z-score) [23]: -0.25
glycan array binding signal (z-score) (Kdn(a2-6)Gal(b1-4)GlcNAc): -0.242
glycan array binding signal (z-score) [24]: -0.219
glycan array binding signal (z-score) [25]: -0.245
glycan array binding signal (z-score) (Man(a1-2)Man(a1-3)Man): -0.239
glycan array binding signal (z-score) [26]: -0.238
glycan array binding signal (z-score) [27]: -0.225
